Some of the results follow.

The record followed here is article PMC12820563, “FoxP3 forms a head-to-head dimer in vivo and stabilizes its multimerization on adjacent microsatellites”.

The target in this test is T1, MBP-FoxP1dN (Mus musculus, UniProt P58462 326-579).
T1 sequence: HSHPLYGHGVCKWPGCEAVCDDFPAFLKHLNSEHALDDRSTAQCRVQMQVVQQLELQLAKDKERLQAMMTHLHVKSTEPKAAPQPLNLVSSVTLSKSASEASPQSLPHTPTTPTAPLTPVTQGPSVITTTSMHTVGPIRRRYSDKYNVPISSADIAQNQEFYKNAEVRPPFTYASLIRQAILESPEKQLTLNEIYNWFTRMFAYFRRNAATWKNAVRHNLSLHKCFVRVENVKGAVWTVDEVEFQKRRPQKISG
As to the kind of experiment: PD-seq (MBP pull-down with sequencing); 20 mM Tris-HCl pH 7.5, 100 mM NaCl, 1.5 mM MgCl2, 0.4 uM protein, 0.1 uM dsDNA library, 30 min, room temperature, amylose pull-down; high values mean tight binding. The settings on record: protein: recombinant; tags: His6-MBP; chain copies: 2; dsDNA, one strand shown. In short, it runs like this: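 Binding is the reads-per-million enrichment of pull-down relative to input, pooled across replicates. For this, 0.4 µM His6-MBP-tagged mouse FoxP3 or FoxP1 fragment lacking the N-terminus, made in E. coli, was incubated with 0.1 µM Klenow-filled double-stranded degenerate DNA library for 30 min at room temperature in Tris pH 7.5 buffer with NaCl and MgCl2. Complexes bound to amylose resin were washed three times before proteinase K released the DNA for PCR barcoding and Illumina sequencing.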
With “GATGATTGTTCTCCCAGCTGATGAATTGTCAGCTTCGAGTAAACAAATTTTCCTAATCTTTCTGTTCAAGCGCCATCTAC”, the binding signal was 0.971 RPM ratio (pull-down/input). Regarding “GATGATTGTTCTCCCAGCTGATGAATTTGGGTCATCGAGTAAACAAATTTTCCTAATCTTTCTGTTCAAGCGCCATCTAC”, the binding signal is 0.874 RPM ratio (pull-down/input). Next, “GATGATTGTTCTCCCAGCTGATGAATTTGCCTGATCGAGTAAACAAATTTTCCTAATCTTTCTGTTCAAGCGCCATCTAC”: 0.906 RPM ratio (pull-down/input); “GATGATTGTTCTCCCAGCTGATGAATTAACGGGATCGAGTAAACAAATTTTCCTAATCTTTCTGTTCAAGCGCCATCTAC”: 0.847 RPM ratio (pull-down/input); “GATGATTGTTCTCCCAGCTGATGAATTGCCGTATTCGAGTAAACAAATTTTCCTAATCTTTCTGTTCAAGCGCCATCTAC”: 1.03 RPM ratio (pull-down/input). In the case of “GATGATTGTTCTCCCAGCTGATGAATTGTAACTGTCGAGTAAACAAATTTTCCTAATCTTTCTGTTCAAGCGCCATCTAC”, the binding signal is 0.997 RPM ratio (pull-down/input).

As for “GATGATTGTTCTCCCAGCTGATGAATTATCGTCATCGAGTAAACAAATTTTCCTAATCTTTCTGTTCAAGCGCCATCTAC”, the binding signal was 1.1 RPM ratio (pull-down/input). Regarding “GATGATTGTTCTCCCAGCTGATGAATTAGCGACGTCGAGTAAACAAATTTTCCTAATCTTTCTGTTCAAGCGCCATCTAC”, the binding signal is 0.911 RPM ratio (pull-down/input). For the sequence “GATGATTGTTCTCCCAGCTGATGAATTTGATTGCTCGAGTAAACAAATTTTCCTAATCTTTCTGTTCAAGCGCCATCTAC”, the binding signal was 1.16 RPM ratio (pull-down/input). As for “GATGATTGTTCTCCCAGCTGATGAATTATGAGCCTCGAGTAAACAAATTTTCCTAATCTTTCTGTTCAAGCGCCATCTAC”, the binding signal was 0.948 RPM ratio (pull-down/input).

For the sequence “GATGATTGTTCTCCCAGCTGATGAATTATTGCTCTCGAGTAAACAAATTTTCCTAATCTTTCTGTTCAAGCGCCATCTAC”, the binding signal is 1.01 RPM ratio (pull-down/input). Regarding “GATGATTGTTCTCCCAGCTGATGAATTGAATCCATCGAGTAAACAAATTTTCCTAATCTTTCTGTTCAAGCGCCATCTAC”, the binding signal is 0.86 RPM ratio (pull-down/input). For the sequence “GATGATTGTTCTCCCAGCTGATGAATTGACAGAATCGAGTAAACAAATTTTCCTAATCTTTCTGTTCAAGCGCCATCTAC”, the binding signal is 1.35 RPM ratio (pull-down/input). For “GATGATTGTTCTCCCAGCTGATGAATTGGGTCACTCGAGTAAACAAATTTTCCTAATCTTTCTGTTCAAGCGCCATCTAC”, the binding signal was 0.888 RPM ratio (pull-down/input). Next, “GATGATTGTTCTCCCAGCTGATGAATTTGTGCTTTCGAGTAAACAAATTTTCCTAATCTTTCTGTTCAAGCGCCATCTAC”: 1.42 RPM ratio (pull-down/input); “GATGATTGTTCTCCCAGCTGATGAATTTATCCAATCGAGTAAACAAATTTTCCTAATCTTTCTGTTCAAGCGCCATCTAC”: 1.2 RPM ratio (pull-down/input). The result for “GATGATTGTTCTCCCAGCTGATGAATTCCCCCCATCGAGTAAACAAATTTTCCTAATCTTTCTGTTCAAGCGCCATCTAC” reads 0.861 RPM ratio (pull-down/input); that for “GATGATTGTTCTCCCAGCTGATGAATTGACTGTGTCGAGTAAACAAATTTTCCTAATCTTTCTGTTCAAGCGCCATCTAC”, 1.01 RPM ratio (pull-down/input). For the sequence “GATGATTGTTCTCCCAGCTGATGAATTTGAATCATCGAGTAAACAAATTTTCCTAATCTTTCTGTTCAAGCGCCATCTAC”, the binding signal was 0.913 RPM ratio (pull-down/input).

For “GATGATTGTTCTCCCAGCTGATGAATTTCCTCAGTCGAGTAAACAAATTTTCCTAATCTTTCTGTTCAAGCGCCATCTAC”, the binding signal is 0.873 RPM ratio (pull-down/input). “GATGATTGTTCTCCCAGCTGATGAATTAAGCCACTCGAGTAAACAAATTTTCCTAATCTTTCTGTTCAAGCGCCATCTAC”: the binding signal is 0.893 RPM ratio (pull-down/input). In the case of “GATGATTGTTCTCCCAGCTGATGAATTTTAGTATTCGAGTAAACAAATTTTCCTAATCTTTCTGTTCAAGCGCCATCTAC”, the binding signal is 1.12 RPM ratio (pull-down/input). “GATGATTGTTCTCCCAGCTGATGAATTTATCCCGTCGAGTAAACAAATTTTCCTAATCTTTCTGTTCAAGCGCCATCTAC”: the binding signal was 1.01 RPM ratio (pull-down/input). “GATGATTGTTCTCCCAGCTGATGAATTTGGGGTATCGAGTAAACAAATTTTCCTAATCTTTCTGTTCAAGCGCCATCTAC”: the binding signal was 0.925 RPM ratio (pull-down/input).

“GATGATTGTTCTCCCAGCTGATGAATTGGTCCAATCGAGTAAACAAATTTTCCTAATCTTTCTGTTCAAGCGCCATCTAC”: the binding signal was 0.951 RPM ratio (pull-down/input). Next, “GATGATTGTTCTCCCAGCTGATGAATTTACATAATCGAGTAAACAAATTTTCCTAATCTTTCTGTTCAAGCGCCATCTAC”: 1.76 RPM ratio (pull-down/input). For the sequence “GATGATTGTTCTCCCAGCTGATGAATTGACCTGCTCGAGTAAACAAATTTTCCTAATCTTTCTGTTCAAGCGCCATCTAC”, the binding signal was 0.911 RPM ratio (pull-down/input). As for “GATGATTGTTCTCCCAGCTGATGAATTGAGGTGATCGAGTAAACAAATTTTCCTAATCTTTCTGTTCAAGCGCCATCTAC”, the binding signal was 0.915 RPM ratio (pull-down/input). The result for “GATGATTGTTCTCCCAGCTGATGAATTGATAGACTCGAGTAAACAAATTTTCCTAATCTTTCTGTTCAAGCGCCATCTAC” reads 0.964 RPM ratio (pull-down/input); that for “GATGATTGTTCTCCCAGCTGATGAATTAGATGGGTCGAGTAAACAAATTTTCCTAATCTTTCTGTTCAAGCGCCATCTAC”, 0.878 RPM ratio (pull-down/input).

On to “GATGATTGTTCTCCCAGCTGATGAATTAGGCCTCTCGAGTAAACAAATTTTCCTAATCTTTCTGTTCAAGCGCCATCTAC”, for which the binding signal was 0.903 RPM ratio (pull-down/input).
